Some of the results follow. Repeats are few or missing, and single values can be far off.
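Also: cell number obtained by counting DAPI-stained nuclei in high-throughput microscope images with image analysis software, screen run in 1,536-well plates.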

For this experiment, the system named is WM1716. As to the kind of experiment: cell count relative to DMSO control; melanoma cells; higher = more viable cells. Conditions: library dose: low library concentration; 72 h.
In the case of `Clc1ccc(Nc2nnc(Cc3ccncc3)c3ccccc23)cc1` [vatalanib] + O=C(Oc1ccc([N+](=O)[O-])cc1)N1CCC(C(O)(c2ccc3c(c2)OCO3)c2ccc3c(c2)OCO3)CC1 [JZL184] (first compound 2 µM, partner dose 1 µM), the cell count was determined as 91.3%. Then `COc1cc2ncnc(Nc3ccc(Oc4ccccc4)cc3)c2cc1OC` + O=C(Oc1ccc([N+](=O)[O-])cc1)N1CCC(C(O)(c2ccc3c(c2)OCO3)c2ccc3c(c2)OCO3)CC1 [JZL184] (first compound 2 µM, partner dose 1 µM), with 96.2%; and `Nc1ccn([C@@H]2O[C@H](CO)[C@@H](O)C2(F)F)c(=O)n1` [gemcitabine] + C[As](C)SC[C@H](NC(=O)CC[C@H](N)C(=O)O)C(=O)NCC(=O)O [Darinaparsin] (first compound 0.0004 µM, partner dose 0.4 µM), with 94.7%. Then `CC(C)C[C@H](NC(=O)[C@H](Cc1ccccc1)NC(=O)c1cnccn1)B(O)O` [Bortezomib] + O=C(Oc1ccc([N+](=O)[O-])cc1)N1CCC(C(O)(c2ccc3c(c2)OCO3)c2ccc3c(c2)OCO3)CC1 [JZL184] (first compound 0.001 µM, partner dose 1 µM), with 19.6%; and `c1cc(-c2cnn3cc(-c4ccc(OCCN5CCCCC5)cc4)cnc23)ccn1` [Dorsomorphin] + O=C(Oc1ccc([N+](=O)[O-])cc1)N1CCC(C(O)(c2ccc3c(c2)OCO3)c2ccc3c(c2)OCO3)CC1 [JZL184] (first compound 0.4 µM, partner dose 1 µM), with 124%.

Molecule `Oc1cc(-c2nc(-c3ccccc3)[nH]c2-c2ccncc2)ccc1Cl` + O=C(Oc1ccc([N+](=O)[O-])cc1)N1CCC(C(O)(c2ccc3c(c2)OCO3)c2ccc3c(c2)OCO3)CC1 [JZL184] (first compound 0.2 µM, partner dose 1 µM) had a cell count of 94.2%.

`Nc1ccn([C@@H]2O[C@H](CO)[C@@H](O)C2(F)F)c(=O)n1` [gemcitabine] + C/C(O)=C(\C#N)C(=O)Nc1cc(Br)ccc1Br [LFM-A13] (first compound 0.0004 µM, partner dose 2 µM): the cell count amounted to 86.9%.

In turn, `CC(C)C[C@H](NC(=O)[C@H](Cc1ccccc1)NC(=O)c1cnccn1)B(O)O` [Bortezomib] + C/C(O)=C(\C#N)C(=O)Nc1cc(Br)ccc1Br [LFM-A13] (first compound 0.001 µM, partner dose 2 µM) registered a cell count of 33.9%. The molecule `CO[C@H]1C[C@@H]2CC[C@@H](C)[C@@](O)(O2)C(=O)C(=O)N2CCCC[C@H]2C(=O)O[C@H]([C@H](C)C[C@@H]2CC[C@@H](OCCO)[C@H](OC)C2)CC(=O)[C@H](C)/C=C(\C)[C@@H](O)[C@@H](OC)C(=O)[C@H](C)C[C@H](C)/C=C/C=C/C=C/1C` [everolimus] + Cc1cc(SCc2sc(-c3ccc(C(F)(F)F)c(F)c3)nc2C)ccc1OCC(=O)O [GW0742] (first compound 0.02 µM, partner dose 2 µM) had a cell count of 107%.

In turn, `Nc1ccn([C@@H]2O[C@H](CO)[C@@H](O)C2(F)F)c(=O)n1` [gemcitabine] + O=C(Oc1ccc([N+](=O)[O-])cc1)N1CCC(C(O)(c2ccc3c(c2)OCO3)c2ccc3c(c2)OCO3)CC1 [JZL184] (first compound 0.0004 µM, partner dose 1 µM) came in with a cell count of 100%.

As to `Cc1nc(Nc2ncc(C(=O)Nc3c(C)cccc3Cl)s2)cc(N2CCN(CCO)CC2)n1` [dasatanib] + Cc1cc(SCc2sc(-c3ccc(C(F)(F)F)c(F)c3)nc2C)ccc1OCC(=O)O [GW0742] (first compound 0.004 µM, partner dose 2 µM), the cell count was found to be 60.6%. Molecule `COCC[n+]1c2c(n(Cc3cnccn3)c1C)C(=O)c1ccccc1C2=O` + Cc1cc(SCc2sc(-c3ccc(C(F)(F)F)c(F)c3)nc2C)ccc1OCC(=O)O [GW0742] (first compound 0.0004 µM, partner dose 2 µM) had a cell count of 94.8%.

Molecule `Cc1cc(Nc2cc(N3CCN(C)CC3)nc(Sc3ccc(NC(=O)C4CC4)cc3)n2)n[nH]1` [Tozasertib] + C/C(O)=C(\C#N)C(=O)Nc1cc(Br)ccc1Br [LFM-A13] (first compound 0.006 µM, partner dose 2 µM) displayed a cell count of 92.8%. As for `Cc1cc(Nc2cc(N3CCN(C)CC3)nc(Sc3ccc(NC(=O)C4CC4)cc3)n2)n[nH]1` [Tozasertib] + C[As](C)SC[C@H](NC(=O)CC[C@H](N)C(=O)O)C(=O)NCC(=O)O [Darinaparsin] (first compound 0.006 µM, partner dose 0.4 µM), the figure is 86.8%.

`COc1ccc(COc2ccc(Cc3cnc(N)nc3N)cc2OC)cc1` + C/C(O)=C(\C#N)C(=O)Nc1cc(Br)ccc1Br [LFM-A13] (first compound 1 µM, partner dose 2 µM) returned a cell count of 88%. On to `O=C(O)c1ccc2c(c1)nc(Nc1cccc(Cl)c1)c1ccncc12` + O=C(Oc1ccc([N+](=O)[O-])cc1)N1CCC(C(O)(c2ccc3c(c2)OCO3)c2ccc3c(c2)OCO3)CC1 [JZL184] (first compound 0.4 µM, partner dose 1 µM), for which the cell count turned out to be 84.6%.

On to `COc1ccc(COc2ccc(Cc3cnc(N)nc3N)cc2OC)cc1` + Cc1cc(SCc2sc(-c3ccc(C(F)(F)F)c(F)c3)nc2C)ccc1OCC(=O)O [GW0742] (first compound 1 µM, partner dose 2 µM), for which the cell count was determined as 121%. `Clc1ccc(Nc2nnc(Cc3ccncc3)c3ccccc23)cc1` [vatalanib] + C[As](C)SC[C@H](NC(=O)CC[C@H](N)C(=O)O)C(=O)NCC(=O)O [Darinaparsin] (first compound 2 µM, partner dose 0.4 µM): the cell count was 97.3%.

As for `CC(C)C[C@H](NC(=O)[C@H](Cc1ccccc1)NC(=O)c1cnccn1)B(O)O` [Bortezomib] + N.N.[Cl][Pt][Cl] [cisplatin] (first compound 0.001 µM, partner dose 1.6 µM), the cell count turned out to be 37.8%.

Source of the values: the supplement of paper PMC4604168 (melanoma cell lines).
